Assay results: article PMC6212790
The list shows a part of the results. At the low end of the ranking the order means little.

What follows are sequences tested against T1, GST-Rok-C97-191 (UniProt O34857) (assay: protein binding microarray). Settings: Rok is a gene silencer of Bacillus subtilis; high values mean tight binding; most listed sequences are background and not binding sites; double strand, one strand shown.
T1 sequence: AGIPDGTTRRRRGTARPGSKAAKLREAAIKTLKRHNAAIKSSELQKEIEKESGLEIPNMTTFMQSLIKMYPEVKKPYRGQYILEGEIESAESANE
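Note: rank score from −0.5 (least bound) to 0.5 (best bound).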

Sequence	binding signal [E-score]
TAAACTCA	0.238
ATAACTAT	0.383
AAGCTCCC	-0.234
CCCTCCAA	-0.358
ACACTCAA	-0.00816
CAACGCCA	0.0129
CAGGTCTC	-0.144
AACGGGCA	-0.153
GCACTTAC	-0.155
ACCGACCG	-0.159
AGATGGCC	-0.153
TATAAACA	0.294
AGTTTAGC	0.199
GCATCCGC	-0.147
CGTGAACA	-0.00164
CCCGAAGG	-0.291
AATGTCAT	0.178
ATCCATTC	-0.112
ATGATCTA	0.25
GATTCGAA	-0.0962
AAATGCCA	0.168
CCCCCGAA	-0.297

Sequence	binding signal [E-score]
CCTACCGA	0.152
AGTGTACA	0.141
GACTGTTA	-0.31
GAGGCAAA	-0.172
AACCGCGG	-0.114
AGCCGCAG	-0.314
CCGGTCCA	-0.171
TCAACTAA	0.0958
ATTATTGC	0.0201
ACGTAGTC	-0.268
ACGACGAC	-0.0322
AGACAAGG	-0.0106
GCGGCTAC	-0.0818
ACCTACAC	0.0632
ATATTTGC	0.295
AGACCCGC	-0.204
AACTACCT	0.412
ACCAATCA	-0.132
CAGCTGGG	-0.194
CTCTAAAC	0.13
AGGCCTTC	-0.169
CTCCATGC	-0.0936

Sequence	binding signal [E-score]
GCGTCAAA	0.0446
AAGGAACC	-0.0467
AAGACGAA	0.0188
GCCTCAGA	-0.238
GGGCCTAC	-0.157
TCCGTTCA	-0.145
AGTTAAGA	0.0443
AGCGACAA	-0.196
AACAATCG	0.0562
AAGCCACG	-0.355
GGGCTTAA	-0.174
CCCACTGA	-0.286
AAACGTGT	0.00989
CATGATCC	0.0498
TTAGTCAA	0.178
ACCTTAAC	-0.00952
AGGCTAAA	0.025
CACCACCC	-0.216
ATTAAAGA	0.0688
ATTAGAAT	0.172
AGGTTTGC	-0.00436
GTCTCGCA	-0.092

Sequence	binding signal [E-score]
GCCATCCC	-0.322
AATGCCCA	-0.197
CCGATGCC	-0.213
CCCCCACA	-0.2
AATGTCTG	-0.0689
AACTTGAT	0.106
CCCGAAAG	-0.363
ATTACGAG	0.189
CGGAGCTA	-0.0829
CTGGAAGA	-0.0538
CTGAAGAA	-0.16
AATTGCGA	0.139
CTGTGCGC	-0.089
GCCTGCGC	-0.24
AGCCGTTG	-0.179
AGTTATAG	0.258
ATTGAGAA	0.039
CCCCGGGC	-0.292
GGTTATGA	-0.179
ACGCCTTC	-0.108
GACATAAC	0.151
CCTCTTGA	-0.179

Sequence	binding signal [E-score]
ATTCGGAC	-0.173
CATCCGCA	-0.0559
AACCCCGT	-0.201
AATGGCTC	-0.0224
ATAACCAC	-0.0135
CCTGGTCC	-0.28
CATGTGTC	0.0554
AGTTACGG	0.228
CTTAGAGC	-0.167
AAGAAGGA	-0.0711
AGGATGCA	0.11
GGGGGCTA	-0.267
AAATGAGA	-0.0222
CAAACGTC	-0.0617
CCGGCCTA	-0.0345
AAACCCCA	-0.228
ATATGAGG	-0.0533
CAGGGACC	-0.0539
ATTCCACC	-0.0276
AAAAGACG	0.0272
GCTAGACA	0.112
ATCCCGTG	-0.234
